# From PMC6919601, “Identification of Plasmodium dipeptidyl aminopeptidase allosteric inhibitors by high throughput screening” (PLoS ONE, 2019)
# “And” between values parts separate entries of the source, which are not always exact repeats. Identical values can stand only once. About 230 (0.21%) of roughly 110,000 compounds showed an effect of 50% or more. Some of the results follow.
# Target: DPAP1 (Plasmodium falciparum, UniProt Q8IIJ9)
# Assay: primary screen, percent inhibition; read by cleavage of a fluorogenic dipeptide substrate; higher = more effect of the substance
# Set-up: species or system P. falciparum D10 trophozoite lysates; single well
# 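Note: 30 min substrate incubation versus DMSO and 10 µM JCP410 controls.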
# Chain of DPAP1 (Q8IIJ9 whole entry, looked up): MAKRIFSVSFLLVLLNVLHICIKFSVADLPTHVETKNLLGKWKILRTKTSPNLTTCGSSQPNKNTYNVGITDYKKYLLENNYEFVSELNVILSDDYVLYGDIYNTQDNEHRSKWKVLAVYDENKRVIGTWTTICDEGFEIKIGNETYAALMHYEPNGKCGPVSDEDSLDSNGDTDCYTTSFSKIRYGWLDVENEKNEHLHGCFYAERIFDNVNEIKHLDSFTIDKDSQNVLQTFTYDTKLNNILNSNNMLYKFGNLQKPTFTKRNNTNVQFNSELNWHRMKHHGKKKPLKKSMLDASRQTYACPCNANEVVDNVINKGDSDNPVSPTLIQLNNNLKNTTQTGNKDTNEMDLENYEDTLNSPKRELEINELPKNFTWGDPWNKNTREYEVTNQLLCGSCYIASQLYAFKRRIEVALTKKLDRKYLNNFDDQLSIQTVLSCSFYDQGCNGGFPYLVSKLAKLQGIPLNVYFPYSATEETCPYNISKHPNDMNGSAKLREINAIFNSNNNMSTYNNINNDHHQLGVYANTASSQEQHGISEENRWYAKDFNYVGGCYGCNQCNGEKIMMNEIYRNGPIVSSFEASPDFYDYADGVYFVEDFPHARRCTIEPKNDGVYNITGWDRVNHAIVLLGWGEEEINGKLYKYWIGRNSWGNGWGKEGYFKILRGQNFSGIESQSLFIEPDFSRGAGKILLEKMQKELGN
row,SMILES,% Inhibition @ 10 uM
1,Cc1onc(-c2ccccc2)c1C(=O)N1CCN(c2cccc(C(F)(F)F)c2)CC1,-1.55%
2,CC(C)CC(C(=O)NCC#N)c1cccc(-c2csc(N3CCN(CCO)CC3)n2)c1 (centres unmarked),-8.26%
3,Cc1ccc(N2C(=O)C3C4CCC(C4)C3C2=O)cc1Cl (centres unmarked),-1.2%
4,CC(C)CCNC(=O)c1ccc(CS(=O)c2cccc(Cl)c2)o1 (centres unmarked),3.62%
5,CCCCCc1nnc(NC(=O)c2ccccc2Cl)s1,0.997%
6,COc1ccc2cc3c(N)nn(C(=O)Cc4ccccc4OC)c3nc2c1,-3.06%
7,CCCc1cc(O)n2nc(C)c(-c3ccc(OC)cc3)c2n1,-0.267%
8,Cc1ccc(CNC(=O)c2cccc3c2C(=O)N(C2CCCCC2)C3)cc1,2.9%
9,Cc1cccc(NC(=O)c2cccc(S(=O)(=O)NCc3ccccc3)c2)c1,-3.66%
10,CN1CCN(CCNC(=O)Cn2ncc3c4ccccc4n(Cc4ccc(F)cc4)c3c2=O)CC1,-7.1%
11,Cn1c(=O)[nH]c2nnc(-c3ccccc3)nc2c1=O,-2.85%
12,O=C(Nc1ccccc1OC(F)F)c1cccc(OC(F)F)c1,-5.6%
13,COc1ccc(C=C2C(=O)NC(=S)NC2=O)cc1Br,0.927%
14,COc1ccc(-n2c(=S)[nH]c3sc4c(c3c2=O)CCCCC4)cc1,12.4%
15,Cc1cc(C)c(C(=O)CSc2nc(C)cc(C)n2)c(C)c1,5.51%
16,CN(C(=O)c1cc2c(s1)-c1ccccc1OC2)C1CCCCC1,0.291%
17,Cc1ccc(S(=O)(=O)c2cc3c(=O)n4cccc(C)c4nc3n(CCN3CCOCC3)c2=N)cc1,-1.52%
18,Cc1ccc(S(=O)(=O)N2CCCC(C(=O)NC3CCCc4ccccc43)C2)cc1 (centres unmarked),-1.34%
19,O=C(COc1ccc(Cl)cc1)NCc1ccc2c(c1)OCO2,0.611%
20,Cc1ccccc1C(=O)OC1OC(=O)C(Cl)=C1N1CCOCC1 (centres unmarked),-1.47%
21,COc1ccc(NC(=O)CSc2nccn2C)c(OC)c1,0.343%
22,COc1cc(/C=C2\NC(=O)NC2=O)ccc1OCC(=O)Nc1ccc(F)cc1,0.245%
23,CC(Cc1ccccc1F)N1CCC(C(N)=O)CC1 (centres unmarked),-1.64%
24,CC1ON(c2ccc(Cl)cc2)C(=O)NC1=O (centres unmarked),-1.45%
25,CCC(C)N1C(=O)CN(C2CCC(C)CC2)C(=O)C1c1ccc(F)cc1 (centres unmarked),4.47%
26,Cc1cccc(NC(=O)c2cc3c(ccc4ccccc43)oc2=O)n1,1.37%

row,SMILES,% Inhibition @ 10 uM
1,Cn1cc(Cl)c(C(=O)Nc2cnn(Cc3ccc(Cl)cc3Cl)c2)n1,-1.37%
2,CC(C)c1ccc(/C=c2\sc3nc(-c4ccncc4)nn3c2=O)cc1,0.222%
3,COc1ccc(C2c3c(n(C)c4ccccc34)C(=O)N2CC(=O)NCc2cccs2)cc1 (centres unmarked),1.63%
4,CC1(c2ccccc2)OC(=O)C(=Cc2ccc(O)cc2)C(=O)O1 (centres unmarked),-1.47%
5,CCCCNc1ccc(C(=O)N[C@@H](CC(C)C)C(=O)NCC#N)cc1,-3.04%
6,CC1CCCC(N(CCO)CCO)C1 (centres unmarked),-1.81%
7,NCCCCCCNC(=O)c1c(O)oc2ccccc2c1=O,-1.69%
8,O=C(/C=C/c1ccco1)NCCCN1CCOCC1,5.69%
9,COc1cc2c(cc1OC)CN(Cc1cc(OC)c(OC)c(OC)c1)CC2,1.2%
10,O=C(Cc1ccc(F)cc1F)NC1CCCCC1,-3.15%
11,Clc1ccc(-c2csc(-c3ccccn3)n2)cc1,-6.04%
12,O=S(=O)(Nc1ccncc1)c1ccc(-c2ccc(Cl)cc2)cc1,7.37%
13,COc1ccc(N2CCN(C/C=C/c3ccc(N(C)C)cc3)CC2)cc1,-1.64%
14,CC1(c2cccnc2)CC(=O)c2cc(O)ccc2O1 (centres unmarked),6.13%
15,Cc1cccc(NC(=O)CC[C@H](NC(=O)c2ccc(Br)cc2)C(=O)NCC#N)c1,-4.72%
16,Cc1cc(Cl)ccc1OC(C)C(=O)Nc1ccc(F)c(F)c1 (centres unmarked),-1.42%
17,CCc1nnc(SCc2ccc(OCCC(C)C)cc2)n1N,-3.33%
18,COc1cc2c(cc1OC)C(c1ccccc1)N(C(=O)C(C)(C)C)CC2 (centres unmarked),2.24%
19,Cc1ccc(Sc2c(C(=O)NCC3CCCO3)[nH]c3ccccc23)cc1 (centres unmarked),-6.99%
20,CCOC(=O)c1cc(S(=O)(=O)NCCc2ccc(Cl)cc2)cn1C,-6.59%
21,CC(C)CC(=O)Nc1nnc(S(=O)(=O)N2CCOCC2)s1,14.6%
22,O=C(NCCCn1ccnc1)c1nn2c(C(F)(F)F)cc(-c3cccs3)nc2c1Cl,1.02%
23,Cc1ccc(C(=O)c2coc3ccc(OCC(=O)O)cc23)cc1,18.3%
24,CC(=O)N(C)c1ccc(NC(=O)COc2ccc(C)cc2)cc1,-4.18%
25,O=C(CCn1c(=O)[nH]c2ccsc2c1=O)NCCSCc1ccccc1,-7.33%
26,CC(C)C[C@H](NC(=O)OCc1ccc(F)cc1Cl)C(=O)NCC#N,-4.72%

row,SMILES,% Inhibition @ 10 uM
1,CC1CCC(C(=O)NC(C(=O)NC2CCCC(C)C2C)C(C)C)CC1 (centres unmarked),-5.67%
2,CCN(CC)S(=O)(=O)c1ccc(C(=O)OCCN2C(=O)CCC2=O)cc1,-4.84%
3,COc1ccccc1CCNC(=O)CCC(=O)N1CCSc2ncccc21,-7.47%
4,Cc1cccc(C)c1NC(=O)c1ccc(OC(F)F)cc1,-5.06%
5,CC(=O)Nc1ccc(S(=O)(=O)N2CCCCCC2)cc1,-1.93%
6,Cc1c(-c2ccccc2)n(-c2cccc(O)c2)c2nc3c(c(=O)n(C)c(=O)n3C)n12,0.772%
7,COCCn1c(CN2CCN(C)CC2)nc2c1c(=O)n(C)c(=O)n2C,-1.43%
8,COc1ccc(CN2CCc3cc(OC)c(OC)cc3C2)cc1C,-5.57%
9,COC(=O)c1[nH]c2ccccc2c1/C=C1\C(=O)NC(=S)N(c2ccccc2C)C1=O,2.6%
10,O=S(=O)(Nn1cnnc1)c1ccccc1Cl,-2.26%
11,N#Cc1c(NCc2ccccc2)ccnc1SCc1ccc(Cl)cc1,2.13%
12,CCN(CC)c1ccc(Nc2nc(-c3c(C)nc4cc(C)ccn34)cs2)cc1,5.8%
13,CC1=C(C(=O)Nc2ccc(Br)cn2)C(c2ccc(Cl)cc2)C2=C(O)CCCC2=N1 (centres unmarked),-9.79%
14,CC(C)C[C@H](NC(=O)OCc1ccccc1)C(=O)N[C@@H](CCc1ccccc1)C(=O)CN(Cc1ccccc1)C(=O)OC(C)(C)C,-4.82%
15,CCN(C(=O)c1cccc(Cl)c1)c1ccccc1C,-1.54%
16,O=C(/C=C/c1ccc(Cl)cc1)Nc1ccc(Cl)cc1,-0.414%
17,Cc1ccc(-c2cn3c(n2)sc2cc(C(=O)N4CCC5(CC4)OCCO5)ccc23)cc1,21.7%
18,COc1ccc(/C=C2\SC(=O)N(CC(=O)Nc3nccs3)C2=O)cc1OC,-2.27%
19,CC(NC(=O)CCNS(=O)(=O)c1cccc2nonc12)c1ccccc1 (centres unmarked),-2.9%
20,O=C(CN1C(=O)CSc2ncccc21)N1CCCCCC1,-0.637%
21,CCO/C(O)=C1\C(C)=NC2=C(C(=O)CC(c3ccccc3)C2)C1c1cc(OC)c(OC)c(OC)c1 (centres unmarked),-1.6%
22,COc1ccc(/C=N/n2c(S)nnc2-c2ccccc2Cl)c(OC)c1,-4.91%
23,C=CCOc1ccccc1/C=C1\N=C(c2ccccc2)OC1=O,23.7%
24,C=C(C)Cn1c(SCC(=O)O)nc2c1c(=O)n(C)c(=O)n2C,-2.78%
25,CCOC(=O)c1c(C)c(C(=O)NC2CCCCCC2)c(C)n1CC,-7.18%
26,Cc1cccn2c(=O)c3cc(C(=O)NCCC(c4ccccc4)c4ccccc4)n(C)c3nc12,4.19%

row,SMILES,% Inhibition @ 10 uM
1,CNC(=O)Cn1c(-c2cccs2)cc2ccccc21,0.95%
2,CCCCc1ccc(S(=O)(=O)Nc2ccc(C(F)(F)F)cc2)cc1,2.78%
3,COc1ccc(N2CCN(C(=O)CN(CCc3ccccc3)S(C)(=O)=O)CC2)cc1,-5.21%
4,CNc1nsc(C(=O)c2ccc(C)cc2)c1N,3.39%
5,CC12COc3ccccc3C1c1sc(O)nc1SC2 (centres unmarked),-0.736%
6,CCOc1cccc(C(=O)Nc2ccc(N3CCN(C)CC3)cc2)c1,4%
7,CC(=O)c1cccc(Nc2ncnc3ccccc23)c1,-4.28% and -1.42%
8,O=C(CCc1ccccc1)ONC(=O)c1ccc(Cl)cc1,-0.386%
9,CC1CN(Cc2ccc(Cl)cc2Cl)CC(C)O1 (centres unmarked),-4.3%
10,CCOc1ccc(CNCc2c(C(=O)O)c(C)n(Cc3ccc(C)cc3)c2C)cc1OC,-5.49%
11,Cc1cc2c(c(O)n1)C(c1cc3c(cc1Br)OCO3)C(C#N)=C(N)O2 (centres unmarked),3.93%
12,COc1ccc(C(=O)NCCSCc2ccccc2)cc1OC,2.7%
13,CCN(CC)CCNC(=O)c1c(C)oc2cc3c(C(=O)NCCN(CC)CC)c(C)oc3cc12,-1.68%
14,COC(=O)C1CCC(c2ccccc2)CC1 (centres unmarked),2.6%
15,Cc1ccc2nc(Nc3nc(O)c4c(n3)CCCC4)nc(C)c2c1,-0.545%
16,CCOc1cccc2c1Oc1nc(-c3cccc(O)c3)nc(S)c1C2,22%
17,CN1CCN(C(=O)c2ccc(CN3CCOCC3)cc2)CC1,-10%
18,Cc1ccc(NC(=O)COc2ccc([N+](=O)[O-])cc2C)c(Br)c1,-2.62%
19,COc1ccc(NC(=O)CN2C(=O)S/C(=C/c3ccc(OC)c(O)c3)C2=O)cc1,3.56%
20,COc1ccc(/C=C2\SC(=O)N(c3ccc(O)cc3)C2=O)cc1OC,7.09%
21,O=C(c1ccccc1)N1CCN(c2ncnc3sc4c(c23)CCCC4)CC1,2.16%
22,Cc1n[nH]c(C)c1Cc1ccc(C(=O)O)cc1,2.1%
23,Cc1cccc(Cn2c(N3CCc4ccccc4C3)nc3c2c(=O)[nH]c(=O)n3C)c1,0.758%
